In all, about 310,000 compounds went through this assay and about 2,200 (0.71%) showed an effect of 50% or more. The effect is printed as a negative number. The list shows a part of the results.
Biological target: human ether-à-go-go-related gene (hERG) potassium channel (human, UniProt Q12809)
Assay: primary screen, population patch clamp on CHO cells stably expressing hERG

human ether-à-go-go-related gene (hERG) potassium channel, sequence (Q12809 whole entry, looked up): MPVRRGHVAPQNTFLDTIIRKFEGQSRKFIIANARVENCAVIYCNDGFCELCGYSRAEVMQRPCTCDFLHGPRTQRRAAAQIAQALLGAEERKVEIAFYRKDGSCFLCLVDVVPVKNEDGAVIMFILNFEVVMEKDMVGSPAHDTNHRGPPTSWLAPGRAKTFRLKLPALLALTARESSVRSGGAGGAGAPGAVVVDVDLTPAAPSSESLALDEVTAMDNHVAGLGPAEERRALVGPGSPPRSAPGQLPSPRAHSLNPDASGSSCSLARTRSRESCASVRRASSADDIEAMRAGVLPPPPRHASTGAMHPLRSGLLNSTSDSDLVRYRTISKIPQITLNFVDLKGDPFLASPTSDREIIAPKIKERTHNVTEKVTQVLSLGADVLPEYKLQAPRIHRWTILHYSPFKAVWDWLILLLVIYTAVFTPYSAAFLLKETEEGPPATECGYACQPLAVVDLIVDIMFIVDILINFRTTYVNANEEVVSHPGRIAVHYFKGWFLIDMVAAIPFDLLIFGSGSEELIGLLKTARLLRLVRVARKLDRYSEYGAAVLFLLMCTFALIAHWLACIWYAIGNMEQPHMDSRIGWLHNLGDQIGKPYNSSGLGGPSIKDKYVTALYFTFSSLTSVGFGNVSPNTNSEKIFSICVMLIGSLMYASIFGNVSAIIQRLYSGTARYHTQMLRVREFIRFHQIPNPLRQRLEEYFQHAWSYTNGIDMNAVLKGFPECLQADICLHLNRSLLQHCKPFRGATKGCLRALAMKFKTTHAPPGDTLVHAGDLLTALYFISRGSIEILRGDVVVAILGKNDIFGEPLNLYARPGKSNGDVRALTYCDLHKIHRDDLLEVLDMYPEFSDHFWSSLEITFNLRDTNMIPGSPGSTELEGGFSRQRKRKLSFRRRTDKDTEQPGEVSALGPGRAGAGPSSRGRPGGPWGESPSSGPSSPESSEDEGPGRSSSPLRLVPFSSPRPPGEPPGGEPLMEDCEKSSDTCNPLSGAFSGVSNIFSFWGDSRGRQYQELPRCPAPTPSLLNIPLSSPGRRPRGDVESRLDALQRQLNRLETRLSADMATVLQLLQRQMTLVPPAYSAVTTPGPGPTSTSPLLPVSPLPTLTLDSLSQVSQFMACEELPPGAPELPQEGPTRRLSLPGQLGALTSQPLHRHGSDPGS

Row | Compound | hERG current change (%, negative = inhibition) at 1uM [%]
1 | CCOC(=O)c1cnc(-n2nc(C)cc2C)nc1NC1CCCC1 | 5.56
2 | Cc1ccc(C(=O)CNc2cc(C)ccc2C)cc1 | 16.4
3 | CCOC(=O)c1cc2sccc2n1CC(=O)C(C)(C)C | -2.62
4 | CC(=O)c1ccc(-n2nncc2C)cc1 | 7.46
5 | O=C1CCN(S(=O)(=O)c2ccccc2)CCN1CCOCc1ccc(C(F)(F)F)cc1 | -8.18
6 | CC1(C)CCCC2=C1CC1C(=O)N(c3ccccc3)C(=O)C1C2 (centres unmarked) | -5.84
7 | Cc1occc1C(=O)NNS(=O)(=O)c1ccc([N+](=O)[O-])cc1 | 11.7
8 | Nc1nc2c(nc(SCc3ccccc3Br)n2C2OC(CO)C(O)C2O)c(=O)[nH]1 (centres unmarked) | 27.1
9 | CC(C)C[C@H](NS(=O)(=O)c1ccc(Br)cc1)C(=O)O | 5.43
10 | Cc1cccc(C(=O)N(Cc2cccs2)C2CCS(=O)(=O)C2)c1 (centres unmarked) | 16.4
11 | O=C(Cc1ccccc1)NCC(=O)Nc1ccc(OC(F)(F)F)cc1 | 17.2
12 | COc1ccc(NC2=CC(=S)NC(C)(C)C2)cc1 | 12.8
13 | O=C(CSc1nnc(-c2ccc(Cl)cc2)o1)NNC(=O)c1ccncc1 | 10.4
14 | COC(=O)c1ccc2c(c1O)C(=O)c1ccccc1C2=O | 3.82
15 | COc1cc(C(=O)OCCCN2CCCN(CCCOC(=O)c3cc(OC)c(OC)c(OC)c3)CC2)cc(OC)c1OC.Cl | -49.1
16 | CC(C)CCN1CCN(Cc2cccc(C(F)(F)F)c2)CC1CCO (centres unmarked) | -17.6
17 | COc1cc(CC(C)N)c(OC)cc1I.Cl (centres unmarked) | -2.02
18 | CC(=O)NC(c1ccco1)c1cc(Cl)c2ccc(Cl)nc2c1O (centres unmarked) | -2.55
19 | CN(C)CCCN(C(=O)c1ccc([N+](=O)[O-])s1)c1nc2cc3c(cc2s1)OCCO3.Cl | -23.1
20 | O=C(CC1C(=O)NCCN1Cc1cccc(F)c1)NCCCOc1cccnc1 (centres unmarked) | 12.2
21 | N#CCC(=O)Nc1ccc(C(=O)Nc2cccnc2)cc1 | 7.86
22 | O=C(Nc1cscc1S(=O)(=O)c1ccccc1)c1ccccc1Cl | 9.29
23 | Cc1ccc(NC(=O)N2C3CCCC2CC(NC(=O)C2CC2)C3)cc1 (centres unmarked) | 15.4

Row | Compound | hERG current change (%, negative = inhibition) at 1uM [%]
24 | CC1=NN(C(=O)CSCc2ccccc2)C(O)(c2ccc(Cl)cc2)C1 (centres unmarked) | 4
25 | C[C@H]1COc2c(C3(N)CC3)c(F)cc3c(=O)c(C(=O)O)cn1c23 | 15.4
26 | N#CCOc1coc(CN2CCN(c3ccccc3)CC2)cc1=O | 13.5
27 | CCOC(=O)c1c(NC(=O)c2nc3n(n2)C(C(F)F)CC(C)N3)sc2c1CCCC2 (centres unmarked) | 7.5
28 | COc1ccc(NC(=O)/C=C/c2ccc(OC)c(OC)c2)cn1 | 8.03
29 | Cn1c(CN2CCOCC2)nc2cc(NC(=O)c3ccc(Cl)cc3)ccc21 | -2.15
30 | CC(=O)NC1=NN(C(C)=O)C(C)(c2ccc(C)o2)S1 (centres unmarked) | 10.4
31 | CC(=O)N(C)c1ccc(NC(=O)Cc2cccc3ccccc23)cc1 | 11.7
32 | O=C(O)/C=C/C(=O)Nc1ccc(NC(=O)c2ccccc2)c(Cl)c1 | 14.3
33 | Cc1ccc(S(=O)(=O)Cc2ccc(C(=O)N3CCC4(CC3)OCCO4)o2)cc1 | 10.5
34 | O=C(CCCn1c(=O)c2sccc2n(CC(=O)NCc2ccco2)c1=O)NCc1ccco1 | 0.163
35 | CCOc1ccccc1NC(=O)CCn1nc(C)c(S(=O)(=O)N2CCCCC2)c1C | 13.2
36 | O=C(CCCCC(=O)Nc1ccccc1Cl)Nc1ccccc1Cl | 18.5
37 | Cc1ccc(-c2cc(C(=O)N3CCCCC3)c3ccccc3n2)cc1C | 7.98
38 | COc1ccc(C)cc1NC(=O)C1CCCN(S(=O)(=O)c2cnc[nH]2)C1 (centres unmarked) | 13.9
39 | CCCC(=O)NC(=S)Nc1cccc2c(O)cccc12 | 9.3
40 | O=C(Nc1ccc(S(=O)(=O)Nc2ncccn2)cc1)C(F)(F)F | 19.6
41 | c1ccc(Cc2nnc3sc(C4COc5ccccc5O4)nn23)cc1 (centres unmarked) | -0.465
42 | O=C(O)CN(c1ccccc1[N+](=O)[O-])S(=O)(=O)c1ccccc1 | 21.1
43 | CCOCCCn1c(SCC(=O)Nc2ccc(NC(C)=O)cc2)nc2ccccc2c1=O | 8.34
44 | O=C(CC1N=C2c3ccccc3N=C(SCc3ccc(Cl)cc3)N2C1=O)NCc1ccco1 (centres unmarked) | -27.4
45 | CC(=O)c1ccccc1N(C(=O)Cn1nnc2ccccc21)C(C(=O)NCC1CCCO1)c1ccc(N2CCOCC2)cc1 (centres unmarked) | -5.24
46 | O=C(COc1ccccc1)NCC(c1ccco1)N1CCN(c2ccccc2)CC1 (centres unmarked) | 0.0406

Row | Compound | hERG current change (%, negative = inhibition) at 1uM [%]
47 | Cc1onc(-c2ccccc2)c1C(=O)OCC(=O)Nc1ccc(Cl)cc1 | 2.94
48 | O=C(NCc1ccco1)c1cc(Cl)nc(Cl)c1 | 8.63
49 | O=C(CSC1=NCCS1)Nc1nc(-c2ccccc2)cs1 | 4.18
50 | O=C(Nc1c(-c2ccccc2)nc2ccccn12)c1cccs1 | 8.69
51 | COc1ccc(Cl)cc1S(=O)(=O)N(C)CC(=O)N1CCCC1 | 5.48
52 | O=C(CN1C(=O)NC2(CCCC2)C1=O)Nc1ccc(F)cc1 | 10.3
53 | CC(=O)Nc1ccc(NCN2C(=O)C3C4CCC(C4)C3C2=O)cc1 (centres unmarked) | 11.6
54 | Cl.NC(Cc1ccc(O)cc1)c1cn([C@@H](CCC(=O)O)C(=O)N2CCNCC2)nn1 (some centres unmarked) | 11.3
55 | O=C(c1ccccc1)N1N=C(c2ccccc2)CC1(O)C(F)(F)F (centres unmarked) | 13.6
56 | O=C(NCCN1CCN(S(=O)(=O)c2ccc([N+](=O)[O-])cc2)CC1)C(=O)Nc1ccccc1 | 2.87
57 | COc1ccc(Cl)cc1NC(=S)NCCc1c[nH]c2ccccc12 | -4.09
58 | O=C(c1cc2nc(-c3ccc(Cl)cc3)cc(C(F)(F)F)n2n1)N1CCOCC1 | 19.1
59 | CCC(C)(C)C1CCC2(CC1)NC(=O)N(CC(=O)NCCCc1ccccc1)C2=O (centres unmarked) | 6.94
60 | COC(=O)c1ccc(COC(=O)CNC(=O)c2cccs2)cc1 | 14.9
61 | Cc1ccc(-n2c(C)cc(-c3csc(N)n3)c2C)cc1.Cl | 9.73
62 | COc1ccc2oc(=O)c(C(=O)n3ccc(C)n3)cc2c1 | -3.05
63 | CCC(OC(=O)CN1C(=O)c2ccccc2C1=O)C(=O)NC1CCCC1 (centres unmarked) | 9.4
64 | O=C(NCc1cccnc1)c1ccc([N+](=O)[O-])o1 | 8.74
65 | COc1ccc(C(=O)N2CCC(n3nccc3NC(=O)C3CCOC3)CC2)cc1 (centres unmarked) | 9.41
66 | CCOC(=O)C1=C(CN2CCC(C)CC2)NC(=O)NC1c1ccc(Cl)cc1 (centres unmarked) | 3.37
67 | COc1ccc(C(=O)OC/C(O)=C(\C#N)c2nc3ccccc3[nH]2)cc1S(=O)(=O)N1CCOCC1 | 7.95
68 | Cc1ccccc1OCC(=O)OCC(=O)Nc1ccc(Cl)cn1 | 18.9
69 | O=C1NC(c2ccccc2)C(C(=O)c2cccs2)C(O)(C(F)(F)F)N1 (centres unmarked) | -3.73

Row | Compound | hERG current change (%, negative = inhibition) at 1uM [%]
70 | Clc1ccc(-c2csc(N3CCC(c4ccccc4)C3)n2)cc1 (centres unmarked) | 14.9
71 | Cc1cc(C)n(-c2ccc(Cl)c(C(=O)NCc3ccccc3)n2)n1 | 8.57
72 | O=C(Nc1cccc(-c2nc3cccnc3s2)c1)c1ccc(Cl)nc1 | 10.4
73 | Cc1ccccc1OCC(=O)OCC(=O)N1CCCc2ccccc21 | 17.3
74 | Cn1c(=O)c2c(nc3n2CC(O)CN3c2ccc(O)cc2)n(C)c1=O (centres unmarked) | 18.1
75 | COc1ccc(Cl)cc1N(CC(=O)NC1CC2CCC1C2)S(=O)(=O)c1ccccc1 (centres unmarked) | -0.203
76 | Cn1c(Cn2c(=O)sc3ccccc32)nnc1SCC(N)=O | -9.65
77 | CC(NS(=O)(=O)c1ccc(CCC(=O)NCc2ccco2)cc1)c1ccccc1 (centres unmarked) | 1.23
78 | CC1CCN(C(=S)c2cccc([N+](=O)[O-])c2)CC1 | 8.63
79 | Cc1noc(COc2ccc(OCc3nc(C)no3)cc2)n1 | 11.4
80 | O=C(OCCN=C1NS(=O)(=O)c2ccccc21)c1ccccc1F | 11.1
81 | COc1cc(CNC(=O)c2cnc(C)cn2)cc(OC)c1 | 11.9
82 | CCn1c(SCC(=O)N2CCCC2)nc2c(c1=O)SCC2 | 13
83 | Cc1nc(C)c(CCNC(=O)c2cccc(Cl)c2)s1 | 1.58
84 | Cl.Oc1ccccc1/C=N/NC1=NCCCCC1 | -6.02
85 | CC1CCCN(CCCCOc2cccc(Br)c2)C1.O=C(O)C(=O)O (centres unmarked) | -10.6
86 | CS(=O)(=O)c1ccccc1C(=O)N1CCN(Cc2ccccc2)CC1 | 15.1
87 | CCOC(=O)CNC(=O)CNC(=O)c1ccc(OCC(C)C)cc1 | 5.76
88 | CCc1ccc(C=NC23CN4CN(CN(C4)C2)C3)s1 | 7.69
89 | O=C(CCCn1c(=O)c2cccn2c2cccnc21)N1CCN(c2ccccc2F)CC1 | 7.48

Source: PMC4336329 (PLoS ONE, 2015)
